Measurements from PubChem BioAssay AID624417 (National Center for Advancing Translational Sciences (NCATS), 2012).
The campaign covered roughly 410,000 compounds. About 6,400 (1.6%) were called active. The inconclusive results got no clear call from the source; some entries with a clear call stand among them for comparison. Calls follow the shape of the dose curve; as a rule, active = well fitted inhibition curve with a large enough effect; inconclusive = small, poorly fitted or top-dose-only effect; inactive = no such curve, though single readings can be large or run the other way. Potencies of inconclusive entries are left out as doubtful fits.

What follows are molecules tested against Glucagon-like peptide 1 receptor (Homo sapiens) (UniProt P43220) (assay: qHTS of GLP-1 Receptor Inverse Agonists (Inhibition Mode)). Details: HEK293 GLP-1R CRE-luciferase, luminescence, 24 h, GLP-1R form is constitutively active; activity change, negative = inhibition: at 38.3 µM (top of the series) unless noted.
UniProt P43220, sequence (P43220 whole entry, looked up): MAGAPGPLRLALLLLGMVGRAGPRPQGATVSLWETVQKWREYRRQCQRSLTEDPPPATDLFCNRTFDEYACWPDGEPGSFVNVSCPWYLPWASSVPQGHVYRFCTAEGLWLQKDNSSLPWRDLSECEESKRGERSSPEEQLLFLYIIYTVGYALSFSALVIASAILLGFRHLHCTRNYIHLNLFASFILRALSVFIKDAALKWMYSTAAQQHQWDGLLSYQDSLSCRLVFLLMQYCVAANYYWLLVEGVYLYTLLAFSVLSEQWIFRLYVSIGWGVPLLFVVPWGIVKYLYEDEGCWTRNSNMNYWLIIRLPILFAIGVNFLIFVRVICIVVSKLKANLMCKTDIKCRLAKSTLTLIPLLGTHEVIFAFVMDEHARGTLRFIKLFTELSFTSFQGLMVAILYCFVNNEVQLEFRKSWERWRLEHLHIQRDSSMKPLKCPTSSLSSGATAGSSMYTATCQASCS
Method in brief: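 GLP-1R inverse agonism mode: basal reporter luminescence in engineered HEK293 cells measured after one day of compound exposure at 37 deg C, with a 12 min room-temperature detection step.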
% is scaled to controls: 0 for no effect and ±100 for the full control effect; potency is read from the fitted curve at half-maximal effect; tags tell the direction and shape of the fitted curve.
Also: nearly all actives have a fitted effect of over 55% in size.

Compound | Potency | activity change, negative = inhibition
CCOC(=O)[C@H]1[C@H]2COc3ccc(Br)cc3[C@@H]2N2C(=O)CN(Cc3ccc(OC)cc3)C(=O)[C@@]12C | inconclusive [inhibitor, single point] | –
CCC(C)(CC(=O)Nc1nccs1)c1ccccc1 (centres undefined) | – | inconclusive: -52.1% [inhibitor]
Cc1cccc(CN2CCN(C3CN(CCc4ccccc4)S(=O)(=O)C3)CC2)c1 (centres undefined) | inconclusive [inhibitor, full curve, poor fit] | –
O=C(NCCN1C(=O)S/C(=C\c2ccc(Cl)c([N+](=O)[O-])c2)C1=O)C1=COCCO1 | inconclusive [inhibitor, single point] | –
CCCOC(=O)NC(CC)COC(=O)Nc1cccc(C)c1C (centres undefined) | inconclusive [inhibitor, full curve, poor fit] | –
Cc1ccc(C)c(N2CCN(C3C(=O)Nc4ccccc4-n4nnnc43)CC2)c1 (centres undefined) | inconclusive [inhibitor, partial curve] | –
CCN(CC)c1nc(N)nc(N(c2ccccc2)c2ccccc2)n1 | inconclusive [inhibitor, partial curve, poor fit] | –
CN(C)CCCN(C(=O)COc1ccccc1)c1nc2ccc(F)cc2s1 | inconclusive [inhibitor, partial curve] | –
CN1CCN(c2ccccc2NC(=O)c2ccc(N3CCCCC3)c([N+](=O)[O-])c2)CC1 | inconclusive [inhibitor, partial curve, poor fit] | –
COc1cccc(-c2nn(C)c3sc(C(=O)NCc4ccc(C)cc4)cc23)c1 | inconclusive [inhibitor, single point] | –
O=C1CC2(CCN(C(=O)c3cccc(Br)c3)CC2)Oc2ccccc21 | inconclusive [inhibitor, partial curve, poor fit] | –
COc1ccc(OCCCC(=O)Nc2ccc(S(=O)(=O)N3CCOCC3)cc2)cc1 | inconclusive [inhibitor, partial curve] | –
CCOc1ccc(NS(=O)(=O)c2ccc3[nH]cc(C(=O)NC(C)CC)c(=O)c3c2)cc1 (centres undefined) | inconclusive [inhibitor, partial curve, poor fit] | –
COc1cc(N2CCCC2)c(OC)cc1/C=C1/NC(=S)NC1=O | – | inactive: 26.1%
Cc1cc(O)c(C(C)C)cc1N=Cc1ccccc1[N+](=O)[O-] | inconclusive [inhibitor, single point] | –
COc1cccc(-c2nnc(NC(=O)c3ccc(S(=O)(=O)N4CC(C)OC(C)C4)cc3)o2)c1 (centres undefined) | inconclusive [inhibitor, full curve] | –
Cc1ccc(N(CC(=O)NCc2ccc(F)cc2)S(=O)(=O)c2c(C)n[nH]c2C)cc1 | inconclusive [inhibitor, full curve, poor fit] | –
O=C(CN1CCN(Cc2ccccc2)CC1)Nc1ccccc1-c1ccccc1 | active: 2 µM | –
CC(C#CCN1CCCCC1)OCCOCc1ccccc1 (centres undefined) | inconclusive [inhibitor, single point] | –
Cc1ccccc1NC(=S)N(Cc1cccnc1)Cc1ccccc1Cl | inconclusive [inhibitor, partial curve] | –
CC/C(=N\NC(=S)NC(C)C)c1ccc(OC)c(OC)c1 | inconclusive [inhibitor, single point] | –
CCCCCCN1C[C@@H](n2cc(-c3ccc(F)cc3)nn2)[C@H](O)C[C@@H]1c1ccc(Cl)cc1 | inconclusive [inhibitor, full curve, poor fit] | –

Compound | Potency | activity change, negative = inhibition
CCOC(=O)C1=C(c2cccc(Oc3ccccc3)c2)NC(=S)NC1C (centres undefined) | inconclusive [inhibitor, full curve] | –
COc1ccc(C(CNC(=O)c2ccc(Cl)c(NC(=O)c3cccs3)c2)N2CCCC2)cc1 (centres undefined) | inconclusive [inhibitor, single point] | –
O=C(CN(c1ccccc1)S(=O)(=O)c1ccccc1)Nc1ccccc1C(=O)NCc1ccco1 | inconclusive [inhibitor, partial curve, poor fit] | –
CC(=O)N1CCCc2cc(S(=O)(=O)N3CCC(C(=O)NCc4ccccc4Cl)CC3)ccc21 | – | inactive: 9%
CCC(=O)N1c2ccccc2CC1C(=O)NCCN1CCN(c2cccc(Cl)c2)CC1 (centres undefined) | inconclusive [inhibitor, single point] | –
COc1ccc(CNC(=O)C2CCN(S(=O)(=O)c3ccc(Br)s3)CC2)cc1 | inconclusive [inhibitor, partial curve, poor fit] | –
O=C(NCc1ccccc1Cl)c1ccc2nc(Cc3ccccc3)oc2c1 | inconclusive [inhibitor, single point] | –
CCN1/C(=C/c2ccc3cc(C)ccc3[n+]2C)Sc2ccc3sccc3c21 | inconclusive [inhibitor, partial curve, poor fit] | –
CC(C)c1ccc([C@@H]2O[C@H](CCc3ccccc3)CC3=C2C(=O)OC(C)(C)O3)cc1 | inconclusive [inhibitor, single point] | –
CCN1CCN(c2cc(C)c3cc(NC(=O)c4cc(Br)ccc4Cl)ccc3n2)CC1 | inconclusive [inhibitor, single point] | –
Cn1ccnc1SCC(=O)c1ccc(Cl)cc1 | – | inactive: 21.3%
O=C(Nc1ccc(Cl)c(S(=O)(=O)Nc2ccccc2Cl)c1)c1cccs1 | inconclusive [inhibitor, single point] | –
COc1ccc(NC(=O)c2cc3ccc(O)cc3o/c2=N\O)cc1 | inconclusive [inhibitor, single point] | –
Cc1ccc(NC(=O)CSc2nccn2Cc2ccco2)cc1 | – | inactive: -16%
CCC1CN(C(=O)N2CCC(C(=O)NCCCc3ccccc3)CC2)c2ccccc2O1 (centres undefined) | – | inactive: 6.6%
O=C(Nc1ccc2c(c1)OCCO2)C1CCCC1 | inconclusive [inhibitor, partial curve, poor fit] | –
CC(C)C[C@@H]1O[C@H](CCc2ccccc2)Cc2[nH][nH]c(=O)c21 | inconclusive [inhibitor, partial curve] | –
CC1=C(C(=O)Nc2cccc(Cl)c2)C2(CCCCCC2)OC1=O | inconclusive [inhibitor, single point] | –
CC1CC(C)CN(C(=O)CCCn2c(=S)[nH]c3ccccc3c2=O)C1 (centres undefined) | – | inactive: 0%
COc1cc(NC(=O)Cn2nc(C(F)(F)F)c3c2CCCC3)cc(OC)c1OC | inconclusive [inhibitor, single point] | –
COc1ccccc1NC(=O)Cn1c(=O)n(CCc2ccccc2)c(=O)c2sc3ccccc3c21 | – | inactive: 15.7%
CC(C)CC(N)c1csc(NC(=O)Nc2ccccc2Cc2ccccc2)n1 (centres undefined) | inconclusive [inhibitor, partial curve, poor fit] | –

Compound | Potency | activity change, negative = inhibition
O=C(Nc1ccc(-c2cn3cccnc3n2)cc1)c1ccccc1F | – | inactive: 12.3%
O=C(CN1C(=O)NC2(CCCCCC2)C1=O)N1CCC(Cc2ccccc2)CC1 | inconclusive [inhibitor, partial curve, poor fit] | –
CC(C)C1C(=O)N(Cc2cn(Cc3ccco3)nn2)CCS(=O)(=O)N1Cc1ccc(-c2cccc(N(C)C)c2)cc1 (centres undefined) | inconclusive [inhibitor, partial curve, poor fit] | –
O=C(O)C=C1CCN(c2ncc(C(F)(F)F)cc2Cl)CC1 | – | inactive: 14.2%
Cc1ccc(Cn2cc(CN3CC(N4CCCC4)CS3(=O)=O)nn2)cc1 (centres undefined) | – | inactive: 26.1%
CCN1CCc2c(sc(NC(=O)Cc3ccccc3)c2C(N)=O)C1 | – | inactive: 6.76%
C=CCc1ccc(OCCCCN2CC(C)CC(C)C2)c(OC)c1 (centres undefined) | inconclusive [inhibitor, partial curve, poor fit] | –
Cc1ccnc(NC(=O)c2ccc(S(=O)(=O)N3CCCCC3)cc2)c1 | – | inactive: -6.35%
COc1cccc(C(=O)Nc2nc(-c3ccccc3)c(-c3ccccc3)o2)c1 | inconclusive [inhibitor, partial curve, poor fit] | –
Cc1cc(Nc2ccccc2Cl)c2ccccc2n1 | inconclusive [inhibitor, partial curve, poor fit] | –
CCCCN(CCCC)S(=O)(=O)c1ccc(C(=O)Nc2sc3c(c2C(N)=O)CCN(CC)C3)cc1 | – | inactive: -19.3%
CCc1nc2ccccc2n1CCCCOc1ccc(Cl)cc1 | inconclusive [inhibitor, single point] | –
O=C(c1cc(S(=O)(=O)N2CCOCC2)ccc1F)N1CCc2ccccc21 | inconclusive [inhibitor, single point] | –
O=C(c1cc(S(=O)(=O)N2CCOCC2)ccc1Cl)N1CCC(Cc2ccccc2)CC1 | inconclusive [inhibitor, partial curve, poor fit] | –
CC(=O)Nc1nc2n(n1)C(c1ccc(Cl)cc1)C=C(C)N2 (centres undefined) | – | inactive: 17.2%
Cc1cccc(OCC(=O)Nc2c(C(=O)N3CCN(c4ccccc4)CC3)oc3ccccc23)c1 | – | inactive: 6.63%
COc1ccc(N2CCN(c3oc(-c4ccccc4C)nc3S(=O)(=O)c3ccccc3)CC2)cc1 | – | inactive: -12.2%
c1ccc(-c2ccc(OCCCNC3CCCC3)cc2)cc1 | inconclusive [inhibitor, partial curve, poor fit] | –
CCN(/C=N/c1sc2c(c1C#N)CCCCC2)CC | inconclusive [inhibitor, partial curve] | –
COc1ccc(-c2nc(Cn3c(SCc4cccc(F)c4)nc4cccnc43)c(C)o2)cc1 | inconclusive [inhibitor, single point] | –
